In the supplement of paper PMC10928670:
MIC of N. gonorrhoeae strains collected 1971-2005, agar dilution (CLSI M07); ranges 0.03-64 mg/L (penicillin, azithromycin), 0.015-1 (cefixime, ceftriaxone), 0.5-256 (spectinomycin); higher = less susceptible. No active / inactive call per row; the paper counts cefixime and ceftriaxone above 0.25 and azithromycin above 1 mg/L as non-susceptible. The source says 'penicillin'; penicillin G is assumed. Isolates are numbered anew.

Experiments:
Assay in all cases: Agar dilution by CLSI M07.
[1] = compound: CC1(C)S[C@@H]2[C@H](NC(=O)Cc3ccccc3)C(=O)N2[C@H]1C(=O)O [penicillin G]
[2] = compound: C=CC1=C(C(=O)O)N2C(=O)[C@@H](NC(=O)/C(=N\OCC(=O)O)c3csc(N)n3)[C@H]2SC1 [cefixime]
[3] = compound: CN[C@@H]1[C@H](O)[C@H](NC)[C@H]2O[C@@]3(O)C(=O)C[C@@H](C)O[C@H]3O[C@@H]2[C@H]1O [spectinomycin]
[4] = compound: CO/N=C(\C(=O)N[C@@H]1C(=O)N2C(C(=O)O)=C(CSc3nc(=O)c(O)nn3C)CS[C@H]12)c1csc(N)n1 [ceftriaxone]
[5] = compound: CC[C@H]1OC(=O)[C@H](C)[C@@H](O[C@H]2C[C@@](C)(OC)[C@@H](O)[C@H](C)O2)[C@H](C)[C@@H](O[C@@H]2O[C@H](C)C[C@H](N(C)C)[C@H]2O)[C@](C)(O)C[C@@H](C)CN(C)[C@H](C)[C@@H](O)[C@]1(C)O [azithromycin]

Test System “Neisseria gonorrhoeae isolate 122 (GyrA: Wild type, ParC: Wild type, mtrR: -35A Del, A39T, penA: Type IV NonMosaic, A517G, G543S, ponA: L421P, porB: Wild type)” has an MIC [1] of 1 µg/mL, an MIC [2] of 0.125 µg/mL and an MIC [3] of 32 µg/mL. The MIC [4] was 0.125 µg/mL and the MIC [5] was 0.125 µg/mL.
Work on “Neisseria gonorrhoeae isolate 123 (GyrA: Wild type, ParC: Wild type, mtrR: -35A Del, G45D, penA: Type II NonMosaic, A517G, ponA: L421P, porB: G120N, A121D)” yielded an MIC [1] of 0.125 µg/mL, an MIC [2] of no more than 0.015 µg/mL and an MIC [3] of 16 µg/mL. For the same test system, the MIC [4] was no more than 0.015 µg/mL and the MIC [5] was no more than 0.03 µg/mL.
Test System “Neisseria gonorrhoeae isolate 124 (GyrA: D95N, ParC: Wild type, mtrR: A39T, penA: Type II NonMosaic, A517G, ponA: Wild type, porB: Wild type)” has an MIC [1] of 0.125 µg/mL, an MIC [2] of no more than 0.015 µg/mL and an MIC [3] of 16 µg/mL. For the same test system, the MIC [4] was no more than 0.015 µg/mL and the MIC [5] was no more than 0.03 µg/mL.
“Neisseria gonorrhoeae isolate 125 (GyrA: Wild type, ParC: Wild type, mtrR: -35A Del, A39T, penA: Type IV NonMosaic, A517G, G543S, ponA: L421P, porB: G120D)” showed an MIC [1] of 1 µg/mL, an MIC [2] of 0.03 µg/mL and an MIC [3] of 16 µg/mL. For the same test system, the MIC [4] was 0.03 µg/mL and the MIC [5] was 0.25 µg/mL.
“Neisseria gonorrhoeae isolate 126 (GyrA: S91F, ParC: Wild type, mtrR: A39T, penA: Type II NonMosaic, A517G, ponA: Wild type, porB: G120D)” was tested, and the MIC [1] was 32 µg/mL, the MIC [2] was no more than 0.015 µg/mL and the MIC [3] was 16 µg/mL. The MIC [4] was no more than 0.015 µg/mL and the MIC [5] was no more than 0.03 µg/mL.
“Neisseria gonorrhoeae isolate 127 (GyrA: Wild type, ParC: Wild type, mtrR: -35A Del, penA: Type II NonMosaic, A517G, ponA: Wild type, porB: G120D)” showed an MIC [1] greater than 64 µg/mL, an MIC [2] of no more than 0.015 µg/mL and an MIC [3] of 16 µg/mL. For the same test system, the MIC [4] was no more than 0.015 µg/mL and the MIC [5] was no more than 0.03 µg/mL.
For “Neisseria gonorrhoeae isolate 128 (GyrA: Wild type, ParC: Wild type, mtrR: A39T, penA: Type II NonMosaic, A517G, ponA: Wild type, porB: Wild type)”, the MIC [1] was 0.125 µg/mL, the MIC [2] was no more than 0.015 µg/mL and the MIC [3] was 16 µg/mL. It also gave an MIC [4] of no more than 0.015 µg/mL and an MIC [5] of no more than 0.03 µg/mL.
“Neisseria gonorrhoeae isolate 129 (GyrA: S91F, D95N, ParC: S88P, mtrR: -35A Del, G45D, penA: Type X Mosaic, N513Y, ponA: L421P, porB: G120K, A121D)” gave an MIC [1] of 4 µg/mL, an MIC [2] of 0.5 µg/mL and an MIC [3] of 16 µg/mL. The MIC [4] was 0.125 µg/mL and the MIC [5] was 0.125 µg/mL.
“Neisseria gonorrhoeae isolate 130 (GyrA: Wild type, ParC: Wild type, mtrR: Wild type, penA: Type I NonMosaic, ponA: Wild type, porB: Wild type)” was tested, and the MIC [1] was 0.25 µg/mL, the MIC [2] was no more than 0.015 µg/mL and the MIC [3] was 16 µg/mL. It also gave an MIC [4] of no more than 0.015 µg/mL and an MIC [5] of 0.125 µg/mL.
In the case of “Neisseria gonorrhoeae isolate 131 (GyrA: S91F, D95G, ParC: Wild type, mtrR: -35A Del, penA: Type V Nonmosaic, A517G, G543S, ponA: L421P, porB: G120K, A121D)”, the MIC [1] is reported as 2 µg/mL, the MIC [2] is reported as 0.03 µg/mL and the MIC [3] is reported as 16 µg/mL. For the same test system, the MIC [4] was 0.06 µg/mL and the MIC [5] was 0.5 µg/mL.
With “Neisseria gonorrhoeae isolate 132 (GyrA: Wild type, ParC: Wild type, mtrR: -35A Del, penA: Type 69 NonMosaic, A517G, ponA: L421P, porB: G120K, A121D)” the MIC [1] was 2 µg/mL, the MIC [2] was no more than 0.015 µg/mL and the MIC [3] was 16 µg/mL. For the same test system, the MIC [4] was 0.03 µg/mL and the MIC [5] was 0.25 µg/mL.
“Neisseria gonorrhoeae isolate 133 (GyrA: Wild type, ParC: Wild type, mtrR: -35A Del, G45D, penA: Type II NonMosaic, A517G, ponA: L421P, porB: G120N, A121D)” gave an MIC [1] of 2 µg/mL, an MIC [2] of no more than 0.015 µg/mL and an MIC [3] of 16 µg/mL. For the same test system, the MIC [4] was 0.06 µg/mL and the MIC [5] was 0.25 µg/mL.
“Neisseria gonorrhoeae isolate 134 (GyrA: Wild type, ParC: Wild type, mtrR: -35A Del, G45D, penA: WT NonMosaic, ponA: L421P, porB: G120D, A121D)” showed an MIC [1] of 1 µg/mL, an MIC [2] of no more than 0.015 µg/mL and an MIC [3] of 16 µg/mL. It also gave an MIC [4] of no more than 0.015 µg/mL and an MIC [5] of 0.5 µg/mL.
Work on “Neisseria gonorrhoeae isolate 135 (GyrA: Wild type, ParC: Wild type, mtrR: -35A Del, A39T, penA: Type IV NonMosaic, A517G, G543S, ponA: L421P, porB: G120D)” yielded an MIC [1] of 2 µg/mL, an MIC [2] of 0.03 µg/mL and an MIC [3] of 32 µg/mL. For the same test system, the MIC [4] was 0.03 µg/mL and the MIC [5] was 0.25 µg/mL.
Test System “Neisseria gonorrhoeae isolate 136 (GyrA: S91F, D95G, ParC: Wild type, mtrR: -35A Del, penA: Type V Nonmosaic, A517G, G543S, ponA: L421P, porB: G120K, A121N)” has an MIC [1] of 4 µg/mL, an MIC [2] of 0.125 µg/mL and an MIC [3] of 16 µg/mL. It also gave an MIC [4] of 0.06 µg/mL and an MIC [5] of 0.25 µg/mL.
In the case of “Neisseria gonorrhoeae isolate 137 (GyrA: D95N, ParC: Wild type, mtrR: A39T, penA: Type XXII NonMosaic, A517G, ponA: Wild type, porB: Wild type)”, the MIC [1] is reported as 0.125 µg/mL, the MIC [2] is reported as no more than 0.015 µg/mL and the MIC [3] is reported as 32 µg/mL. It also gave an MIC [4] of no more than 0.015 µg/mL and an MIC [5] of 0.125 µg/mL.
Work on “Neisseria gonorrhoeae isolate 138 (GyrA: Wild type, ParC: Wild type, mtrR: -35A Del, G45D, penA: Type I NonMosaic, ponA: Wild type, porB: G120D, A121D)” yielded an MIC [1] of 0.06 µg/mL, an MIC [2] of no more than 0.015 µg/mL and an MIC [3] of 8 µg/mL. The MIC [4] was no more than 0.015 µg/mL and the MIC [5] was no more than 0.03 µg/mL.
“Neisseria gonorrhoeae isolate 139 (GyrA: Wild type, ParC: Wild type, mtrR: Wild type, penA: Type II NonMosaic, A517G, ponA: Wild type, porB: porB1a)” showed an MIC [1] of 0.125 µg/mL, an MIC [2] of no more than 0.015 µg/mL and an MIC [3] of 16 µg/mL. The MIC [4] was no more than 0.015 µg/mL and the MIC [5] was 0.125 µg/mL.
“Neisseria gonorrhoeae isolate 140 (GyrA: Wild type, ParC: Wild type, mtrR: -35A Del, G45D, penA: Type XII NonMosaic, A517G, ponA: L421P, porB: G120K, A121D)” gave an MIC [1] of 0.5 µg/mL, an MIC [2] of no more than 0.015 µg/mL and an MIC [3] of 16 µg/mL. The MIC [4] was no more than 0.015 µg/mL and the MIC [5] was 0.25 µg/mL.
Work on “Neisseria gonorrhoeae isolate 141 (GyrA: Wild type, ParC: Wild type, mtrR: -35A Del, penA: Type XXII NonMosaic, A517G, ponA: L421P, porB: G120D, A121D)” yielded an MIC [1] of 4 µg/mL, an MIC [2] of 0.03 µg/mL and an MIC [3] of 16 µg/mL. The MIC [4] was 0.03 µg/mL and the MIC [5] was 0.5 µg/mL.
With “Neisseria gonorrhoeae isolate 142 (GyrA: S91F, ParC: S88P, mtrR: -35A Del, G45D, penA: Type X Mosaic, N513Y, ponA: L421P, porB: G120K, A121D)” the MIC [1] was 2 µg/mL, the MIC [2] was 0.25 µg/mL and the MIC [3] was 64 µg/mL. It also gave an MIC [4] of 0.125 µg/mL and an MIC [5] of 0.25 µg/mL.
With “Neisseria gonorrhoeae isolate 143 (GyrA: S91F, D95N, ParC: S88P, mtrR: -35A Del, G45D, penA: Type X Mosaic, N513Y, ponA: L421P, porB: G120K, A121D)” the MIC [1] was 4 µg/mL, the MIC [2] was 0.5 µg/mL and the MIC [3] was 16 µg/mL. The MIC [4] was 0.125 µg/mL and the MIC [5] was 0.125 µg/mL.
For “Neisseria gonorrhoeae isolate 144 (GyrA: Wild type, ParC: Wild type, mtrR: -35A Del, penA: Type XXII NonMosaic, A517G, ponA: Wild type, porB: G120D)”, the MIC [1] was 1 µg/mL, the MIC [2] was no more than 0.015 µg/mL and the MIC [3] was 8 µg/mL. For the same test system, the MIC [4] was no more than 0.015 µg/mL and the MIC [5] was 1 µg/mL.
Test System “Neisseria gonorrhoeae isolate 145 (GyrA: D95G, ParC: Wild type, mtrR: A39T, penA: Type II NonMosaic, A517G, ponA: Wild type, porB: Wild type)” has an MIC [1] of 0.125 µg/mL, an MIC [2] of no more than 0.015 µg/mL and an MIC [3] of 32 µg/mL. The MIC [4] was no more than 0.015 µg/mL and the MIC [5] was 0.06 µg/mL.
For “Neisseria gonorrhoeae isolate 146 (GyrA: Wild type, ParC: Wild type, mtrR: G45D, penA: Type I NonMosaic, ponA: Wild type, porB: Wild type)”, the MIC [1] was 0.125 µg/mL, the MIC [2] was no more than 0.015 µg/mL and the MIC [3] was 8 µg/mL. The MIC [4] was no more than 0.015 µg/mL and the MIC [5] was no more than 0.03 µg/mL.
